Experimental data reported in US20260256811A1, “Humoral Immune Activators for the Treatment of Humoral Immunosuppressed Pathologies, Cancer and Infectious Disease and Humoral Immune Suppressors for the Treatment of Inflammatory Diseases” (Navrogen, Inc., priority 2022, published 2026).

Experiments:
CD16a FcR = settings: ELISA, words
CD16a-158F FcR = CD16a-158F FcR (Homo sapiens, UniProt P08637); assay: ELISA: huCD16a-158F-HIS FcR probe binding to coated human IgG1; settings: titration ELISA; 2.5 μg/mL human IgG1 coat, 2.5 μg/mL huCD16a-158F-HIS
Sequence of UniProt P08637 (P08637 17-206): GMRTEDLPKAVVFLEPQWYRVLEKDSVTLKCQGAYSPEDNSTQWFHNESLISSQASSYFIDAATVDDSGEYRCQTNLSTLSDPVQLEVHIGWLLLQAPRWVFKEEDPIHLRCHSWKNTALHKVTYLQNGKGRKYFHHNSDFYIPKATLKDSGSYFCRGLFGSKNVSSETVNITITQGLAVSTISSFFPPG

Q: How did the “enhanced CD16a FcR-IgG antibody binding activity (SAR)” value (CD16a FcR) turn out when “3-formyl cycloartenol 24-ketone [Compound 20]” was run?
A: The value was “retains enhanced CD16a FcR-IgG antibody binding”.

Q: With “3-β-hydroxy-4,4-dimethyl-5-a-bisnoralcohol [Compound 4]” as the compound, how does the “enhanced CD16a FcR-IgG antibody binding activity (SAR)” value (CD16a FcR) read?
A: The value was “retained binding activity”.

Q: For `CC(C)=CCC[C@@H](C)[C@H]1CC[C@@]2(C)C3CC[C@H]4C(C)(C)[C@@H](O)CC[C@@]45C[C@@]35CC[C@]12C` (some centres unmarked) [Compound 2], which “improvement of CD16a-158F-IgG antibody binding over control Compound 5” value (CD16a-158F FcR) is on record?
A: Its value is 4.7 fold.

Q: With `CC(C)=CCC[C@@H](C)[C@H]1CC[C@H]2C3=C(CC[C@]12C)[C@@]1(C)CC[C@H](O)C[C@@H]1CC3` [Compound 6, 5α-cholesta-8,24-dien-3β-ol] as the compound, how does the “enhanced CD16a FcR-IgG antibody binding activity (SAR)” value (CD16a FcR) read?
A: The value was “loss of activity”.

Q: Which “enhanced CD16a FcR-IgG antibody binding activity (SAR)” value (CD16a FcR) does the source give for `COc1cc(/C=C/C(=O)O[C@H]2CC[C@]34C[C@]35CC[C@]3(C)[C@@H]([C@H](C)CCC=C(C)C)CC[C@@]3(C)[C@@H]5CC[C@H]4C2(C)C)ccc1O` [Compound 12, cycloartenol ferulate] here?
A: The value was “completely inactive”.
